# In PubChem BioAssay AID588855 (National Center for Advancing Translational Sciences (NCATS), 2011):
# In all, about 410,000 compounds went through this assay and about 5,000 (1.2%) were called active. The shares of active, inactive and inconclusive entries below differ from those in the screen. Calls come from the whole dose curve; as a rule, active = well fitted inhibition curve with a large enough effect; inconclusive = small, poorly fitted or top-dose-only effect; inactive = no such curve, though single readings can be large or run the other way. A potency beside an inconclusive call is a rough fit, not a confirmed value.
# Assay: qHTS for Inhibitors of TGF-b; note: nearly all actives have a fitted effect of over 65% in size
# Conditions: HepG2 CAGA-GFP TGF-b/SMAD3 reporter, GFP fluorescence, 18 h, TGF-beta stimulated, 500 pg/mL final; series mostly up to 46.1 µM
# Summary of the method: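 Using HEPG2 CAGA-GFP reporter cells at 1000 cells/well, we pinned test compounds, stimulated with recombinant TGF-beta (500 pg/mL final) and measured total well GFP after 18 h.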
# Potency is the fitted concentration of half-maximal effect; tags give direction and shape of the fitted curve.
row,SMILES,Potency
1,CCc1cnc2ccccc2c1/C=C/c1ccc(N(C)C)cc1,"inconclusive: 22.4 µM [inhibitor, single point]"
2,CCOc1ccc(OCC(=O)Nc2ccc(S(=O)(=O)Nc3cc(C)nc(C)n3)cc2)cc1,inactive
3,Cc1ccc(CN2CCSc3ccc(C(=O)NCc4cccnc4)cc32)cc1,"inconclusive: 35.5 µM [inhibitor, single point]"
4,COc1ccccc1C1SCCN1S(=O)(=O)c1cccc(C(F)(F)F)c1 (stereo not given),"inconclusive: 25.1 µM [inhibitor, single point]"
5,Cc1ccc(-c2nnc(SCc3nc(N)nc(Nc4ccccc4C)n3)n2N)cc1,"inconclusive: 15.8 µM [inhibitor, single point]"
6,Cc1cc(C)c2nc(NNC(=O)c3cc(=O)c4ccccc4o3)sc2c1,"inconclusive: 35.5 µM [inhibitor, single point]"
7,COc1ccc(NC(=O)Cc2coc3cc(C)ccc23)cc1S(=O)(=O)N1CCOCC1,"inconclusive: 35.5 µM [inhibitor, single point]"
8,O=C(NCCc1ccc(F)cc1)Nc1ccccc1Cl,inactive
9,O=C(CCN1C(=O)/C(=C/c2cccs2)SC1=S)Nc1cccc(O)c1,"inconclusive: 35.5 µM [inhibitor, single point]"
10,COc1ccc2nc(NC(=O)CCc3cc(OC)c(OC)c(OC)c3)sc2c1,inactive
11,CN(C)c1cccc2c1c(NC(=O)c1ccc(Cl)cc1)nn2C,"inconclusive: 35.5 µM [inhibitor, single point]"
12,Cc1ccc(S(=O)(=O)N2CCN(C(=O)CSC(=S)N3CCCC3)CC2)c(C)c1,active: 11.2 µM
13,COc1ccc(N2CCN(CCNC(=O)Nc3ccc([N+](=O)[O-])cc3OC)CC2)cc1,inactive
14,Cc1ccc(CN2CC(N3CCCCC3)CS2(=O)=O)cc1 (stereo not given),inactive
15,O=C(NCCC1=CCCCC1)C(=O)NCCc1ccc(Cl)cc1,"inconclusive: 7.08 µM [inhibitor, partial curve, poor fit]"
16,Cn1c(C(C(=O)NCC2CCCO2)N(CCc2ccccc2)C(=O)Cn2nnc3ccccc32)nc2ccccc21 (stereo not given),"inconclusive: 35.5 µM [inhibitor, partial curve, poor fit]"
17,CCCCCC(=O)Nc1ccc(-c2csc(N)n2)cc1,"inconclusive: 35.5 µM [inhibitor, single point]"
18,Cc1cccc(Cn2cnc3c(cnn3C(C)(C)C)c2=O)c1,"inconclusive: 15.8 µM [inhibitor, single point]"
19,COCc1cc(C)nc(SCc2ccc(Br)cc2)c1C#N,inactive
20,COc1cc(OC)c(/C=N/NC(=O)c2ccc(Cn3nc([N+](=O)[O-])cc3C)cc2)c(OC)c1,inactive
